Test results taken from PubChem BioAssay AID1159614 (National Center for Advancing Translational Sciences (NCATS), 2016).
Out of some 45,000 compounds screened, about 65 (0.1%) were called active. Calls follow the shape of the dose curve; as a rule, active = well fitted activation curve with a large enough effect; inconclusive = small, poorly fitted or top-dose-only effect; inactive = no such curve, though single readings can be large or run the other way. The list shows a part of the results.

target: Galactocerebrosidase (Homo sapiens) (UniProt P54803); assay: A Novel Cell-Based Assay to Identify Small Molecules for B -Galactocerebrosidase; details: 145M-Twi-hGALC-G270D cells, HMU-beta-Gal fluorescence, 48 h; series mostly up to 57.5 µM; activation: at the top concentration; also: 0% is about no effect; nearly all actives have a fitted effect of over 65% in size
Sequence of UniProt P54803 (P54803 whole entry, looked up): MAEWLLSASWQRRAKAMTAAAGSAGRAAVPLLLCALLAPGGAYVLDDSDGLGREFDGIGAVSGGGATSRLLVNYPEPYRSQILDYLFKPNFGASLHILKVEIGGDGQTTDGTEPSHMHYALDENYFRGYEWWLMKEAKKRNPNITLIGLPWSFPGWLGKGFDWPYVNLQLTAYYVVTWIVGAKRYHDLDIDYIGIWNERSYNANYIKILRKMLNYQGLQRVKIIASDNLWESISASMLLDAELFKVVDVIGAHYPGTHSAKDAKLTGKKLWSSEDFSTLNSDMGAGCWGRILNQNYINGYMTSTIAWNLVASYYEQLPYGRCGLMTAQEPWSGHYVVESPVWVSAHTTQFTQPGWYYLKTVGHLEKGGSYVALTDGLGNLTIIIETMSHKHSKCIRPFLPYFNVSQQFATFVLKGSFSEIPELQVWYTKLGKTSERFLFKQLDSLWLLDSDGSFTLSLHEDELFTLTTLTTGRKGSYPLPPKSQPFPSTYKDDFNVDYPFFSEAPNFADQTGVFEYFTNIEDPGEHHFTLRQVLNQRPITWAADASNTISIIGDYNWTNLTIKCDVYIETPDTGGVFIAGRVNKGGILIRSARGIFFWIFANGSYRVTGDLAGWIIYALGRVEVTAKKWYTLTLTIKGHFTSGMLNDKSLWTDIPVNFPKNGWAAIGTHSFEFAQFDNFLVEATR
Procedure, shortened: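 qHTS, 1536-well; 145M-Twi-hGALC-G270D cells (WT line also made) in DMEM/F12 + 10% FBS; compound incubation on live cells; HMU-β-gal 0.1 mM final, pH 5.2, NaTC; carbonate stop; fluorescence increase = enhanced residual activity.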

activation, inactive:
O=C(Nc1nnc(S(=O)(=O)N2CCCc3ccccc32)s1)c1ccccc1 -15.3%, CCC1CN(C(=O)Nc2cccc3c2CCCC3)c2ccccc2O1 (centres undefined) -24%, COc1ccc(NC(=O)CCn2c(=O)c3cccn3c3ccccc32)c(OC)c1 -11.3%, COc1ccc(N2CC(NC(=O)C3CC3)CC2=O)cc1OC (centres undefined) -12.1%, CC(=O)c1ccc(NC(=O)CN(C)S(=O)(=O)c2cccc3nsnc23)cc1 -4.41%, COc1ccccc1-c1cc2nc(C)c(CCC(=O)NCc3cccc(Cl)c3)c(C)n2n1 -36.1%, CCCCn1c(C(C)NC(=O)c2ccccc2)nc2ccccc21 (centres undefined) -14.5%, O=C(Cn1c(=O)c2cccn2c2ccc(F)cc21)N1CCN(c2ccc(F)cc2)CC1 -0.172%, Fc1cccc(-n2ncc3c2ncn2nc(-c4ccccc4Cl)nc32)c1 -7.04%, CCOc1ccc(N(C)C(CNS(=O)(=O)c2ccccc2)c2ccccc2)cc1 (centres undefined) -16.7%, O=C(COc1ccccc1)Nc1cccc(-c2cn3cccnc3n2)c1 -18.3%, Cc1cccc(N2CCN(C(=O)CCn3c(=O)c4cccn4c4cccnc43)CC2)c1C -0.0569%, Cc1c(C(=O)Nc2ccc(F)cc2)sc2nc[nH]c(=O)c12 -10.2%, CCc1ccccc1NC(=O)c1cc(S(=O)(=O)N2CCCc3ccccc32)ccc1F -7.37%, CC(C)CCn1c(=O)c2sccc2n2c(CCCC(=O)NCc3ccc(F)cc3)nnc12 -11.7%, Nc1ccc2cc3ccc(N)cc3nc2c1 -7.22%, N#Cc1cccc(NC(=O)c2cc3c(s2)-c2ccc(Cl)cc2SC3)c1 12.1%, COc1ccccc1N1CCN(C(=O)c2cc(-c3ccccc3O)on2)CC1 -17.5%, CCOc1ccc(C(=O)Nc2cc(-c3nc4ccccc4s3)ccc2OC)cc1 17.6%, Cc1ccn2c(=O)c(C(=O)NC(C)c3ccccc3)c(O)nc2c1 (centres undefined) -13.7%, CCOc1ccccc1CNC(=O)c1cccn1-c1nnc(N2CCCCC2)s1 -7.92%, Cc1cc(C)cc(NC(=O)c2cccc3c2C(=O)N(C2CCCCC2)C3)c1 -1.72%, CCc1nn(CC(=O)NCc2ccccc2Cl)c(=O)c2cccn12 -11%, Cc1nc(-c2ccc(S(=O)(=O)Nc3ccc(C)c(N(C)C)c3)cc2)co1 -35.5%, COc1ccc(CCNC(=O)c2ccc3c(c2)N(Cc2ccc(F)cc2)CCS3)cc1OC -9.95%, O=S(=O)(c1ccccc1)c1nc(-c2cccs2)oc1SCc1ccc(F)cc1 -27.9%, Cc1nc(SCC(=O)Nc2ccccc2F)[nH]c(=O)c1Cc1ccccc1 -19.8%, COc1ccccc1-n1c(-c2ccc(C)cc2)cn2c3c(=O)n(C)c(=O)n(C)c3nc12 -2.39%, COc1ccc(NC(=O)c2cnc[nH]2)cc1 -6.24%, COc1ccc(S(=O)(=O)c2cc(NS(=O)(=O)c3ccc(Cl)cc3)c(C)c(C)c2O)cc1 -2.65%, Cc1ccc(C2c3[nH]c4ccccc4c3CCN2C(=O)CCC2CCCC2)cc1 (centres undefined) -10.5%, COc1ccc(CNC(=O)c2ccc(CS(=O)Cc3ccccc3Cl)o2)cc1 (centres undefined) 9.5%, CC12CCC(CC1)C(C)(C)O2 -9.65%, CCc1ccccc1NC(=O)C1CCCN(c2ncnc3onc(C)c23)C1 (centres undefined) -6.71%, COc1ccccc1CCNS(=O)(=O)c1ccc(N2CCCCS2(=O)=O)cc1 -9.32%, COc1ccc(NC(=O)CCc2nnc3n(CC(C)C)c(=O)c4ccccc4n23)cc1 -16.5%, O=C(c1ccc(CSc2nc3ccncc3n2Cc2ccccc2)cc1)N1CCCCCC1 -11.2%, Cc1ccc(-n2nc(C(=O)N3CCN(c4cc(Cl)ccc4C)CC3)c3c4ccccc4n(C)c3c2=O)cc1 -13.8%, Cc1ccc(Cl)cc1-n1ncc2c(Nc3cccc(C)c3C)ncnc21 -11.8%, Cc1ccc(NC(=O)Cn2ccn(-c3ccc(F)c(F)c3)c(=O)c2=O)cc1C -21.3%, O=C(Nc1cccc(C(=O)OCc2cc(=O)n3c4c(sc3n2)CCCC4)c1)c1ccccc1 -0.789%, O=c1c(S(=O)(=O)c2cccc(Cl)c2)cn(Cc2ccccc2)c2cc(N3CCOCC3)c(F)cc12 -5.46%, Cc1cccc(NC(=O)C(NS(=O)(=O)c2ccc3c(c2)oc(=O)n3C)C(C)C)c1 (centres undefined) 2.32%, C=Cc1ccc(CSc2nc(-c3ccc(C)cc3)nc3c2Cc2c(CO)cnc(C)c2O3)cc1 -12.7%, CC(C)c1ccc(OCC(=O)N(Cc2ccc(N(C)C)cc2)C2CCS(=O)(=O)C2)cc1 (centres undefined) -28.9%, CCOc1ccc(S(=O)(=O)Nc2nc3ccccc3nc2Nc2ccc(OC)cc2)cc1 2.63%, Cc1cc(C)c2nc(N(Cc3cccnc3)C(=O)CCOc3ccccc3)sc2c1 -7.81%, CCCNC(=O)CCSc1nc(-c2ccc3c(c2)OCO3)cc(C(F)(F)F)n1 -11.3%, CCc1ccc(NC(=O)Cn2c(=O)n(Cc3ccco3)c(=O)c3cccnc32)cc1 3.3%, Cc1ccc2nc(-c3cccnc3)c(Nc3ccccc3C)n2c1 -18.8%, CCOC(=O)c1c(SCC(=O)Nc2cc(Cl)cc(Cl)c2)nc(=O)[nH]c1C -10.3%, COc1cc(CCC(=O)NCc2ccc3c(c2)CCN3C(=O)c2ccc(F)cc2)cc(OC)c1OC -18.8%, Cc1ccc2nc(NCc3ccc(F)cc3)c3nncn3c2c1 -11.3%, Cc1nc(-c2ccc(S(=O)(=O)NCc3ccc(N(C)C)cc3)cc2)co1 -33.7%, CCN(CC)c1ccc(NC(=O)Cn2nc(C)n3cccc3c2=O)c(C)c1 -3.68%, Cc1cccc(-n2ncc3c(N4CCN(c5ccccc5)CC4)ncnc32)c1 4.88%, COc1ccc2ncc3c(-c4ccc(C)c(C)c4)nn(CC(=O)NC4CCCC4)c3c2c1 -6.35%, COc1ccc(-c2nc3c(c(SCC(=O)N(C)c4ccccc4)n2)Cc2cc(C)ccc2O3)cc1 -10.7%, CCCCNC(=O)C1CCC(CNS(=O)(=O)c2ccc(NC(C)=O)cc2)CC1 (centres undefined) -5.18%, CC(=O)Nc1ncc([N+](=O)[O-])s1 -14.3%, CCc1ccccc1NC(=O)CCc1c(C)nn(-c2ccc(N3CCOCC3)nn2)c1C -16.9%, CCc1nn2c(=O)cc(COC(=O)c3ccccc3NC(=O)C3CCCCC3)nc2s1 -8.66%, O=C(c1ccc(F)cc1)n1nc(-c2ccccc2)nc1NCc1ccc(F)cc1 -22%, COc1cc2ccccc2cc1C(=O)N1CCN(c2nc3ccc(F)cc3s2)CC1 -15.8%, CCc1ccc(CNCc2c(C(=O)O)n(Cc3ccc(F)cc3Cl)c3cc(OC)ccc23)cc1 4.24%, CSCCC(NS(=O)(=O)c1ccc2c(c1)oc(=O)n2C)C(=O)N1CCN(c2cccc(Cl)c2)CC1 (centres undefined) -23.5%, Cc1ccc(CNC(=O)c2nnn(CC(=O)Nc3cc(C)ccc3C)c2N)cc1 -19.4%, O=C(CN1C(=O)COc2ccc(S(=O)(=O)N3CCCCC3)cc21)NCc1ccc(Cl)cc1 -3.3%, CN(C(=O)c1cc2c(s1)-c1ccc(Cl)cc1SC2)c1cccc(C(F)(F)F)c1 -15.2%, COc1ccc(CCNC(=O)c2cnc3sc(N4CCCC4)nn3c2=O)cc1OC -7.89%, CCc1ccccc1NS(=O)(=O)c1ccc(NC(=O)N2CCCC2)cc1 -21.4%, CCOc1ccc(-c2cc(-c3nc(-c4cc(OC)c(OC)c(OC)c4)no3)[nH]n2)cc1 -23%, CCOC(=O)c1cc(-c2ccc(F)cc2)n(CCC(=O)NCCc2ccc(C)cc2)c1C -23%, Cc1ccc(CN(Cc2ccco2)C(=O)COc2ccc(Cl)cc2)o1 -10.5%, CC(=O)c1ccc(NC(=O)c2ccc(-c3nc(CSc4ccccc4)c(C)o3)cc2)cc1 -9.75%, Fc1ccc(-c2noc3ncnc(NCC4CCN(Cc5ccc(Cl)cc5)CC4)c23)cc1 -10.2%, Cc1ccc2cc3c(N)nn(C(=O)c4cccc(F)c4)c3nc2c1 -19%, CO[C@@]1(NC(=O)CSC[C@@H](N)C(=O)O)C(=O)N2C(C(=O)O)=C(CSc3nnnn3C)CS[C@@H]21 -15.7%, COc1cc(NC(=O)c2cc(C)nc3c2c(C)nn3-c2ccccc2Cl)cc(OC)c1 -41.4%, Cc1ccc(N2CCN(S(=O)(=O)c3ccc(F)c(C(=O)Nc4ccc(Cl)cc4Cl)c3)CC2C)cc1 (centres undefined) -1.5%, Cc1cc2c(cc3c(SCc4nc(-c5ccccc5)oc4C)nnc(C)n32)o1 -22.8%, Cc1cc(C)cc(NC(=O)Cn2nnc(-c3nc(-c4ccncc4)no3)c2N)c1 -22.7%, CCn1ccc2c(OCC(=O)Nc3ccccc3C)cccc2c1=O -10.1%, Nc1c(C(=O)Nc2ccc(F)c(F)c2)sc2nc(-c3ccncc3)ccc12 -14.9%, COC(=O)c1cc(NC(=O)c2nn(C)c3c2COc2ccccc2-3)cc(C(=O)OC)c1 -6%, Cc1cc(CC(=O)O)n(C)c1C(=O)c1ccc(Cl)cc1 -7.94%, COc1ccc(S(=O)(=O)Nc2ccc3c(c2)CCCN3S(=O)(=O)c2ccc(C)cc2)cc1F -9.6%, COc1cccc(CNC(=O)c2cc(C)nc3c2c(C)nn3-c2cccc(F)c2)c1 -7.02%, O=C(Nc1ccc2nc(SCC(=O)N3CCCc4ccccc43)sc2c1)c1ccccc1 -32%, CCOC(=O)c1ccc(NC(=O)Nc2cc3c(cc2N2CCCC2)n(C)c(=O)n3C)cc1 -13.1%, COc1ccc(N2CCN(C(=O)c3cccc(NC(=O)c4nsc5ccccc45)c3)CC2)cc1 -10.8%, Cc1ccc(S(=O)(=O)NCCc2cn3ccsc3n2)cc1 -5.93%, COc1ccc(-n2nnnc2C2CCN(S(=O)(=O)c3ccc(C(C)(C)C)cc3)CC2)cc1 -10.4%, CCC(CC)C(=O)Nc1nc2c(s1)CC(C)CC2 (centres undefined) -24.9%, O=C(COCc1cc(-c2ccc3c(c2)OCO3)on1)N1CCN(c2ccccc2)CC1 -14.5%, COc1ccccc1NC(=O)C1=C(C)Nc2nc(SCc3ccccc3F)nn2C1c1cccs1 (centres undefined) -13.8%, Cc1cccc(N(C)C(=O)C(Cc2ccccc2)NS(=O)(=O)c2cccc3nsnc23)c1 (centres undefined) -31.5%, O=C(CN1Cc2ccccc2C1=O)Nc1cc(F)ccc1F -5.27%, Cc1ccc(C)c(NC(=O)N2CC=C(c3c[nH]c4ccccc34)CC2)c1 -32.5%
